Assay results as given in the supplement of paper PMC12217912.
The other results are listed elsewhere or left out. The full chains were built here from the parent and the listed change. Inactive controls read about 0.05.

B1: TEV protease; numbered along this chain (parent)
chain: MGESLFKGPRDYNPISSSICHLTNESDGHTTSLYGIGFGPFIITNKHLFRRNNGTLVVQSLHGVFKVKDTTTLQQHLVDGRDMIIIRMPKDFPPFPQKLKFREPQREERICLVTTNFQTKSMSSMVSDTSCTFPSGDGIFWKHWIQTKDGQCGSPLVSTRDGFIVGIHSASNFTNTNNYFTSVPKNFMELLTNQEAQQWVSGWRLNADSVLWGGHKVFMVKPEEPFQPVKEATQL

Variants of: B1
Assay: raw area under fraction-flipped curve 0-4 h after induction (AUC4h, not background-subtracted), DNA-recorder readout of cleavage of the substrate (dimensionless); higher = more cleavage of the substrate by the protease variant
Conditions: temperature: 34 °C; time window: 0-4 h after rhamnose induction
Procedure: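 In vivo DNA recorder in E. coli TOP10(DE3) ΔrhaA at 34 °C. Each TEVp single-site mutant (parent TEVp 0) is paired with a single-site variant of the 7-mer TEVs (canonical ENLYFQ|S). The substrate sits between flexible linkers in a Bxb1-sfGFP-TEVs-SsrA fusion, so cleavage stabilises Bxb1 and speeds flipping of a recombination array, read by NGS. The value is the raw area under the fraction-flipped curve over 0-4 h after rhamnose induction (AUC4h), with ≥20 reads per time point. It is not background-subtracted; inactive controls average about 0.047.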
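Also: Bxb1 expression induced with 0.2% (w/v) L-rhamnose at OD600 near 0.5, cultures sampled hourly, flipped fraction per protease–substrate barcode pair counted by paired-end Illumina sequencing.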

Variant	area with substrate ENLYFAS	area with substrate ENLYFDS	area with substrate ENLYFES	area with substrate ENLYFFS	area with substrate ENLYFGS	area with substrate ENLYFIS	area with substrate ENLYFKS	area with substrate ENLYFLS	area with substrate ENLYFMS	area with substrate ENLYFNS	area with substrate ENLYFPS	area with substrate ENLYFRS	area with substrate ENLYFSS	area with substrate ENLYFTS	area with substrate ENLYFWS	area with substrate ENLYFYS	area with substrate ENLYFCS	area with substrate ENLYFVS	area with substrate ENLYFHS
MGESLFKGPRDYNPISSSICHLTNESDGHTTSLYGIGFGPFIITNKHLFRRNNGTLVVQSLHGVFKVKDTTTLQQHLVDGRDMIIIRMPKDFPPFPQKLKFREPQREERICLVTTNFQTKSPSSMVSDTSCTFPSGDGIFWKHWIQTKDGQCGSPLVSTRDGFIVGIHSASNFTNTNNYFTSVPKNFMELLTNQEAQQWVSGWRLNADSVLWGGHKVFMVKPEEPFQPVKEATQL [M122P]	0.0214	0.0457	0.0475	0.0522	0.0618	0.0575	0.056	0.0533	0.0792	0.0518	0.0709	0.0521	0.0615	0.0771	0.0682	0.0654	–	–	–
MGESLFKGPRDYNPISSSICHLTNESDGHTTSLYGIGFGPFIITNKHLFRRNNGTLVVQSLHGVFKVKDTTTLQQHLVDGRDMIIIRMPKDFPPFPQKLKFREPQREERICLVTTNFQTKSMTSMVSDTSCTFPSGDGIFWKHWIQTKDGQCGSPLVSTRDGFIVGIHSASNFTNTNNYFTSVPKNFMELLTNQEAQQWVSGWRLNADSVLWGGHKVFMVKPEEPFQPVKEATQL [S123T]	0.0489	–	0.0532	–	0.0738	0.0776	0.0569	–	0.0576	0.071	0.0608	–	0.0634	–	0.041	0.0661	0.0572	–	–
MGESLFKGPRDYNPISSSICHLTNESDGHTTSLYGIGFGPFIITNKHLFRRNNGTLVVQSLHGVFKVKDTTTLQQHLVDGRDMIIIRMPKDFPPFPQKLKFREPQREERICLVTTNFGTKSMSSMVSDTSCTFPSGDGIFWKHWIQTKDGQCGSPLVSTRDGFIVGIHSASNFTNTNNYFTSVPKNFMELLTNQEAQQWVSGWRLNADSVLWGGHKVFMVKPEEPFQPVKEATQL [Q118G]	0.0608	–	0.0678	0.0677	–	0.0586	0.0573	0.0675	0.0841	0.0706	0.0632	–	–	0.0561	–	–	0.0669	0.0846	–
MGESLFKGPRDYNPISSSICHLTNESDGHTTSLYGIGFGPFIITNKHLFRRNNGTLVVQSLHGVFKVKDTTTLQQHLVDGRDMIIIRMPKDFPPFPQKLKFREPQREERICLVTTNFQTKSMSSMVSDTSCFFPSGDGIFWKHWIQTKDGQCGSPLVSTRDGFIVGIHSASNFTNTNNYFTSVPKNFMELLTNQEAQQWVSGWRLNADSVLWGGHKVFMVKPEEPFQPVKEATQL [T132F]	0.0453	–	0.0565	–	–	0.0523	0.0568	–	0.0546	0.0532	0.0538	0.07	0.0522	0.0285	0.0473	0.0728	0.0388	–	0.0658
MGESLFKGPRDYNPISSSICHLTNESDGHTTSLYGIGFGPFIITNKHLFRRNNGTLVVQSLHGVFKVKDTTTLQQHLVDGRDMIIIRMPKDFPPFPQKLKFREPQREERICLVTTNFQTKSMSSLVSDTSCTFPSGDGIFWKHWIQTKDGQCGSPLVSTRDGFIVGIHSASNFTNTNNYFTSVPKNFMELLTNQEAQQWVSGWRLNADSVLWGGHKVFMVKPEEPFQPVKEATQL [M125L]	0.05	–	0.0659	0.0396	–	0.0609	0.0535	–	0.0673	0.0598	0.0537	–	–	0.0634	0.0378	0.051	0.0867	–	–
MGESLFKGPRDYNPISSSICHLTNESDGHTTSLYGIGFGPFIITNKHLFRRNNGTLVVQSLHGVFKVKDTTTLQQHLVDGRDMIIIRMPKDFPPFPQKLKFREPQREERICLVTTNFQTKSMSSMGSDTSCTFPSGDGIFWKHWIQTKDGQCGSPLVSTRDGFIVGIHSASNFTNTNNYFTSVPKNFMELLTNQEAQQWVSGWRLNADSVLWGGHKVFMVKPEEPFQPVKEATQL [V126G]	0.0603	–	0.0611	0.0694	–	0.0139	0.0644	–	–	0.0636	0.0678	0.067	0.0539	0.049	0.0488	–	–	0.055	0.0628
MGESLFKGPRDYNPISSSICHLTNESDGHTTSLYGIGFGPFIITNKHLFRRNNGTLVVQSLHGVFKVKDTTTLQQHLVDGRDMIIIRMPKDFPPFPQKLKFREPQREERICLVTTNFQTKSMSSMVSHTSCTFPSGDGIFWKHWIQTKDGQCGSPLVSTRDGFIVGIHSASNFTNTNNYFTSVPKNFMELLTNQEAQQWVSGWRLNADSVLWGGHKVFMVKPEEPFQPVKEATQL [D128H]	0.0531	0.0633	–	0.101	–	0.0461	0.0408	–	0.0693	0.0695	0.0614	0.061	–	0.0531	0.06	0.0538	0.0544	–	0.0648
MGESLFKGPRDYNPISSSICHLTNESDGHTTSLYGIGFGPFIITNKHLFRRNNGTLVVQSLHGVFKVKDTTTLQQHLVDGRDMIIIRMPKDFPPFPQKLKFREPQREERICLVTTNFQTKEMSSMVSDTSCTFPSGDGIFWKHWIQTKDGQCGSPLVSTRDGFIVGIHSASNFTNTNNYFTSVPKNFMELLTNQEAQQWVSGWRLNADSVLWGGHKVFMVKPEEPFQPVKEATQL [S121E]	0.0498	0.0354	–	0.0799	–	0.0427	–	–	0.0634	0.0565	0.0536	–	–	–	–	–	–	–	–
MGESLFKGPRDYNPISSSICHLTNESDGHTTSLYGIGFGPFIITNKHLFRRNNGTLVVQSLHGVFKVKDTTTLQQHLVDGRDMIIIRMPKDFPPFPQKLKFREPQREERICLVTTNFQTKSMSSMVSDPSCTFPSGDGIFWKHWIQTKDGQCGSPLVSTRDGFIVGIHSASNFTNTNNYFTSVPKNFMELLTNQEAQQWVSGWRLNADSVLWGGHKVFMVKPEEPFQPVKEATQL [T129P]	0.072	0.0655	0.0613	0.131	0.0627	0.0543	0.0647	0.0754	0.0801	0.0584	0.0478	–	0.064	0.0547	0.0358	0.0609	0.053	0.0618	0.0528
